Reference: patent US4228292A, “N-Substituted benzothiazolines and benzoxazolines and their use as herbicides and plant growth regulants” (Monsanto Company, priority 1978, dated 1980)
“And” between values parts separate entries of the source, which are not always exact repeats. Equal values may be shown once. The name of at least one read-out is uncertain. Some compounds share one range, which may span the group rather than tell each member.

Experiments:
Format in all cases: in vivo
Nutsedge [1] = assay: pre-emergent herbicidal test; conditions: G, 5.6 kg/h
Nutsedge [2] = assay: post-emergent herbicidal test; conditions: G; 5.6 kg/h; 4 WAT
Velvetleaf [3] = assay: pre-emergent herbicidal test; conditions: C, 5.6 kg/h
Johnson Grass [4] = assay: post-emergent herbicidal test; conditions: I; 5.6 kg/h; 4 WAT
Quackgrass [5] = assay: pre-emergent herbicidal test; conditions: H, 5.6 kg/h
Velvetleaf [6] = assay: post-emergent herbicidal test; conditions: C
Lambsquarters [7] = assay: post-emergent herbicidal test; conditions: E
Cocklebur [8] = assay: post-emergent herbicidal test; conditions: B
Canada Thistle [9] = assay: post-emergent herbicidal test; conditions: A; 5.6 kg/h; 4 WAT
Lambsquarters [10] = assay: pre-emergent herbicidal test; conditions: E, 5.6 kg/h
Quackgrass [11] = assay: post-emergent herbicidal test; conditions: H; 5.6 kg/h; 4 WAT
Barnyard Grass [12] = assay: pre-emergent herbicidal test; conditions: K, 5.6 kg/h
Downy Brome [13] = assay: post-emergent herbicidal test; conditions: J
Barnyard Grass [14] = assay: post-emergent herbicidal test; conditions: K
Smartweed [15] = assay: pre-emergent herbicidal test; conditions: F, 5.6 kg/h
Johnson Grass [16] = assay: pre-emergent herbicidal test; conditions: I, 5.6 kg/h
Downy Brome [17] = assay: pre-emergent herbicidal test; conditions: J, 5.6 kg/h
Cocklebur [18] = assay: pre-emergent herbicidal test; conditions: B, 5.6 kg/h
Canada Thistle [19] = assay: pre-emergent herbicidal test; conditions: A, 5.6 kg/h
Smartweed [20] = assay: post-emergent herbicidal test; conditions: F
Morning Glory [21] = assay: pre-emergent herbicidal test; conditions: D, 5.6 kg/h
Morning Glory [22] = assay: post-emergent herbicidal test; conditions: D

Row | Compound | post-emergent herbicidal rating (Nutsedge [2]) | post-emergent herbicidal rating (Johnson Grass [4]) | post-emergent herbicidal rating (Velvetleaf [6]; 5.6 kg/h, 4 WAT) | post-emergent herbicidal rating (Lambsquarters [7]; 1.12 kg/h, 4 WAT) | post-emergent herbicidal rating (Lambsquarters [7]; 5.6 kg/h, 4 WAT) | post-emergent herbicidal rating (Cocklebur [8]; 1.12 kg/h, 4 WAT) | post-emergent herbicidal rating (Cocklebur [8]; 5.6 kg/h, 4 WAT) | post-emergent herbicidal rating (Canada Thistle [9]) | post-emergent herbicidal rating (Quackgrass [11]) | post-emergent herbicidal rating (Downy Brome [13]; 1.12 kg/h, 4 WAT) | post-emergent herbicidal rating (Downy Brome [13]; 5.6 kg/h, 4 WAT) | post-emergent herbicidal rating (Barnyard Grass [14]; 1.12 kg/h, 4 WAT) | post-emergent herbicidal rating (Smartweed [20]; 1.12 kg/h, 4 WAT) | post-emergent herbicidal rating (Smartweed [20]; 5.6 kg/h, 4 WAT) | post-emergent herbicidal rating (Morning Glory [22]; 1.12 kg/h, 4 WAT) | post-emergent herbicidal rating (Morning Glory [22]; 5.6 kg/h, 4 WAT) | other results
1 | COC(=N)Cn1c(=O)sc2ccccc21 [Compound 37] | 0 (0-24) | 0 (0-24) | 2 (50-74) | 4 (100) | 4 (100) | 2 (50-74) | 3 (75-99) | 2 (50-74) | 0 (0-24) | 0 (0-24) | 0 (0-24) | 0 (0-24) | 2 (50-74) | 4 (100) | 2 (50-74) | 2 (50-74) and 3 (75-99) | pre-emergent herbicidal rating (Nutsedge [1]; 2 WAT): 0 (0-24); pre-emergent herbicidal rating (Velvetleaf [3]; 2 WAT): 1 (25-49); pre-emergent herbicidal rating (Quackgrass [5]; 2 WAT): 0 (0-24); pre-emergent herbicidal rating (Lambsquarters [10]; 2 WAT): 1 (25-49); pre-emergent herbicidal rating (Barnyard Grass [12]; 2 WAT): 0 (0-24); pre-emergent herbicidal rating (Smartweed [15]; 2 WAT): 0 (0-24); pre-emergent herbicidal rating (Johnson Grass [16]; 2 WAT): 0 (0-24); pre-emergent herbicidal rating (Downy Brome [17]; 2 WAT): 0 (0-24); pre-emergent herbicidal rating (Cocklebur [18]; 2 WAT): 1 (25-49); pre-emergent herbicidal rating (Canada Thistle [19]; 2 WAT): 1 (25-49); pre-emergent herbicidal rating (Morning Glory [21]; 2 WAT): 1 (25-49)
2 | COC(=N)Cn1c(=O)sc2ccccc21 [Compound 38] | 0 (0-24) | 0 (0-24) | 2 (50-74) | 3 (75-99) | 4 (100) | 3 (75-99) | 3 (75-99) | 3 (75-99) | 0 (0-24) | 0 (0-24) | 0 (0-24) | 0 (0-24) | 3 (75-99) | 3 (75-99) | 2 (50-74) | 2 (50-74) | pre-emergent herbicidal rating (Nutsedge [1]; 4 WAT): 0 (0-24); pre-emergent herbicidal rating (Velvetleaf [3]; 4 WAT): 1 (25-49); pre-emergent herbicidal rating (Quackgrass [5]; 4 WAT): 3 (75-100); post-emergent herbicidal rating (Velvetleaf [6]; 0.28 kg/h, 2 WAT): 1 (25-49); post-emergent herbicidal rating (Velvetleaf [6]; 1.12 kg/h, 4 WAT): 1 (25-49); post-emergent herbicidal rating (Lambsquarters [7]; 0.28 kg/h, 2 WAT): 1 (25-49); post-emergent herbicidal rating (Cocklebur [8]; 0.28 kg/h, 2 WAT): 1 (25-49); pre-emergent herbicidal rating (Lambsquarters [10]; 4 WAT): 2 (50-74); pre-emergent herbicidal rating (Barnyard Grass [12]; 4 WAT): 0 (0-24); post-emergent herbicidal rating (Downy Brome [13]; 0.28 kg/h, 2 WAT): 0 (0-24); post-emergent herbicidal rating (Barnyard Grass [14]; 0.28 kg/h, 2 WAT): 0 (0-24); post-emergent herbicidal rating (Barnyard Grass [14]; 5.6 kg/h, 4 WAT): 0 (0-24); pre-emergent herbicidal rating (Smartweed [15]; 4 WAT): 1 (25-49); pre-emergent herbicidal rating (Johnson Grass [16]; 4 WAT): 0 (0-24); pre-emergent herbicidal rating (Downy Brome [17]; 4 WAT): 0 (0-24); pre-emergent herbicidal rating (Cocklebur [18]; 4 WAT): 2 (50-74); pre-emergent herbicidal rating (Canada Thistle [19]; 4 WAT): 3 (75-100); post-emergent herbicidal rating (Smartweed [20]; 0.28 kg/h, 2 WAT): 0 (0-24); pre-emergent herbicidal rating (Morning Glory [21]; 4 WAT): 1 (25-49); post-emergent herbicidal rating (Morning Glory [22]; 0.28 kg/h, 2 WAT): 1 (25-49)
